Assay results from the supplement of paper PMC10320760.
This is a noisy data set.

B1: Ydj1; a variant is named by its letters at X, in order (parent)
chain: MVKETKFYDILGVPVTATDVEIKKAYRKCALKYHPDKNPSEEAAEKFKEASAAYEILSDPEKRDIYDQFGEDGLSGAGGAGGFPGGGFGFGDDIFSQFFGAGGAQRPRGPQRGKDIKHEISASLEELYKGRTAKLALNKQILCKECEGRGGKKGAVKKCTSCNGQGIKFVTRQMGPMIQRFQTECDVCHGTGDIIDPKDRCKSCNGKKVENERKILEVHVEPGMKDGQRIVFKGEADQAPDVIPGDVVFIVSERPHKSFKRDGDDLVYEAEIDLLTAIAGGEFALEHVSGDWLKVGIVPGEVIAPGMRKVIEGKGMPIPKYGGYGNLIIKFTIKFPENHFTSEENLKKLEEILPPRIVPAIPKKATVDECVLADFDPAKYNRTRASRGGANYDSDEEEQGGEGVQCXXX

Variants of: B1
Assay: enrichment factor, frequency at 37 °C / frequency at 25 °C (thermotolerance selection) (ratio); higher = more growth at 37 °C, higher likelihood of farnesylation
Conditions: with Saccharomyces cerevisiae ydj1Δ (yWS304); selective temperature 37 °C; reference temperature 25 °C

Row | Variant | enrichment factor
1 | QSY | 2.22
2 | QSW | 1.64
3 | MTD | 1.09
4 | MTG | 1.63
5 | MTA | 1.73
6 | MTC | 1.41
7 | MTE | 1.11
8 | MTF | 1.04
9 | HTA | 2.16
10 | HTC | 3.86
11 | HTF | 8.45
12 | HTG | 2.02
13 | HTE | 0.834
14 | HTD | 1.71
15 | LSW | 1.52
16 | LSY | 1.23
17 | ASY | 1.75
18 | ASW | 1.32
19 | GTE | 0.255
20 | GTD | 0.366
21 | GTF | 1.65
22 | GTA | 1.76
23 | GTC | 1.19
24 | GTG | 1.35

Row | Variant | enrichment factor
25 | CSY | 0.947
26 | CSV | 0.695
27 | CSW | 0.655
28 | DTF | 1.76
29 | DTE | 0.165
30 | DTA | 0.656
31 | DTG | 0.216
32 | DTD | 0.152
33 | DTH | 1.87
34 | DTC | 1.7
35 | KSW | 1.86
36 | KSY | 1.87
37 | NSW | 1.68
38 | NSY | 1.8
39 | ISY | 1.51
40 | ISW | 1.3
41 | PTD | 1.66
42 | PTE | 1.65
43 | PTA | 1.73
44 | PTF | 1.54
45 | PTC | 1.49
46 | PTG | 1.78
47 | FSW | 1.22
48 | FSY | 1.32

Row | Variant | enrichment factor
49 | MSW | 1.74
50 | MSY | 1.92
51 | ATF | 2.25
52 | ATG | 1.99
53 | ATE | 1.33
54 | ATD | 1.19
55 | ATA | 1.98
56 | ATC | 1.41
57 | ESY | 1.23
58 | ESW | 1.57
59 | VSW | 1.59
60 | VSY | 3.08
61 | VSV | 1.99
62 | RTE | 1.17
63 | RTG | 1.57
64 | RTF | 1.57
65 | RTD | 1.47
66 | RTA | 1.58
67 | RTC | 1.13
68 | FTA | 4.14
69 | FTG | 1.54
70 | FTF | 2.2
71 | FTD | 0.934
72 | FTE | 0.411

Row | Variant | enrichment factor
73 | FTC | 1.81
74 | RSY | 1.35
75 | RSW | 1.39
76 | LTG | 1.33
77 | LTA | 1.41
78 | LTC | 0.0912
79 | LTD | 1.37
80 | LTF | 1.18
81 | LTE | 0.958
82 | STG | 1.97
83 | STD | 1.34
84 | STF | 1.64
85 | STA | 1.75
86 | STE | 0.806
87 | STC | 2.27
88 | ITG | 1.02
89 | ITF | 1.55
90 | ITD | 1.13
91 | ITC | 1.2
92 | ITA | 0.95
93 | ITE | 1.03
94 | WSV | 1.32
95 | WSW | 1.69
96 | WSY | 1.03

Row | Variant | enrichment factor
97 | WTF | 0.975
98 | WTA | 1.83
99 | WTC | 1.27
100 | WTD | 1.17
101 | WTE | 1.49
102 | WTG | 1.07
103 | VTA | 2.13
104 | VTC | 3.1
105 | VTE | 1.16
106 | VTF | 2.28
107 | VTD | 1.5
108 | VTG | 1.83
109 | YTA | 5.21
110 | YTC | 2.93
111 | YTD | 0.752
112 | YTG | 2
113 | YTE | 0.397
114 | YTF | 0.886
115 | QTD | 1.39
116 | QTA | 1.88
117 | QTC | 1.94
118 | QTE | 0.878
119 | QTF | 1.94
120 | QTG | 1.6

Row | Variant | enrichment factor
121 | HSY | 2.19
122 | HSW | 0.965
123 | TSW | 1.89
124 | TSV | 1.93
125 | TSY | 2.37
126 | GSY | 1.07
127 | GSW | 0.802
128 | PSY | 2
129 | PSW | 1.53
130 | DSW | 0.22
131 | DSY | 0.277
132 | NTG | 1.9
133 | NTD | 1.07
134 | NTF | 1.81
135 | NTA | 1.62
136 | NTE | 0.582
137 | NTC | 1.72
138 | KTA | 1.5
139 | KTC | 1.82
140 | KTF | 2.52
141 | KTE | 1.34
142 | KTG | 1.64
143 | KTD | 1.38
144 | TTF | 2.32

Row | Variant | enrichment factor
145 | TTG | 1.84
146 | TTD | 1.4
147 | TTA | 2.09
148 | TTC | 1.61
149 | TTE | 1.8
150 | SSY | 2.68
151 | SSW | 1.48
152 | SSV | 2.17
153 | YSV | 1.88
154 | YSY | 1.76
155 | YSW | 1.26
156 | ETA | 1.5
157 | ETG | 1.65
158 | ETD | 0.528
159 | ETF | 1.78
160 | ETC | 2.36
161 | ETE | 0.486
162 | CTC | 0.459
163 | CTE | 1.89
164 | CTA | 1.58
165 | CTF | 0.711
166 | CTD | 2.07
167 | CTG | 1.51
